According to paper PMC4336329 (PLoS ONE, 2015):
Among all 310,000 compounds or so, about 2,200 (0.71%) showed an effect of 50% or more. Effects have a minus sign here. The list shows a part of the results.

Biological target: human ether-à-go-go-related gene (hERG) potassium channel (human, UniProt Q12809)
Experiment: primary screen, population patch clamp on CHO cells stably expressing hERG

Sequence of human ether-à-go-go-related gene (hERG) potassium channel (Q12809 whole entry, looked up): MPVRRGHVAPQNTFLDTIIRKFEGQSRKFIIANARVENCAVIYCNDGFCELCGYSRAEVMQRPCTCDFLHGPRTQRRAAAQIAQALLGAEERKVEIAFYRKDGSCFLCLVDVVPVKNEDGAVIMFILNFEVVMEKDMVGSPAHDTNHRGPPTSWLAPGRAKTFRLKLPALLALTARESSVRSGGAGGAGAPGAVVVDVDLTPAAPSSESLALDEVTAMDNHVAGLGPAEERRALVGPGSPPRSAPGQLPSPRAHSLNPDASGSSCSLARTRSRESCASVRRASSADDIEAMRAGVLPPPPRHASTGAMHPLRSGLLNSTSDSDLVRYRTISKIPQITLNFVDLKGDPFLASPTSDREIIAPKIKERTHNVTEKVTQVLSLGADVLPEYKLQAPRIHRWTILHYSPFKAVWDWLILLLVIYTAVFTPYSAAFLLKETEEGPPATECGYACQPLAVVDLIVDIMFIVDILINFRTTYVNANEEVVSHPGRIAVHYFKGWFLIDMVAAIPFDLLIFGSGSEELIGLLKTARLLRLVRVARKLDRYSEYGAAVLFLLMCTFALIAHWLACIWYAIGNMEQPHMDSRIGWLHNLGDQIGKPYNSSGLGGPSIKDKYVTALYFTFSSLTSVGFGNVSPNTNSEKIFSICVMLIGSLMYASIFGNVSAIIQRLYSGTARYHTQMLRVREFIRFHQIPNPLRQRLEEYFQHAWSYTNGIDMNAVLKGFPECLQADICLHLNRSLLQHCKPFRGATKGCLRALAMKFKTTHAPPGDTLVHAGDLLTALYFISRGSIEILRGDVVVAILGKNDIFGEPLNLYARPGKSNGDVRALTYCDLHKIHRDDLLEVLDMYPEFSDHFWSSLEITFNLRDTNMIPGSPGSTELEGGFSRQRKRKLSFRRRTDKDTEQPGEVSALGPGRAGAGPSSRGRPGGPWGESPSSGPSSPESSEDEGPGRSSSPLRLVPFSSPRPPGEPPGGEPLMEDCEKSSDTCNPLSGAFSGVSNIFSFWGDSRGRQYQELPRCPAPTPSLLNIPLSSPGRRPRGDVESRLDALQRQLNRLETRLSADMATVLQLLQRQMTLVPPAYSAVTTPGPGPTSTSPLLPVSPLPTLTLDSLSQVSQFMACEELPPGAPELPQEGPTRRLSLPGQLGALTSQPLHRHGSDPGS

SMILES	hERG current change (%, negative = inhibition) at 1uM [%]
CCN(C(=O)Cn1cc(C(F)(F)F)ccc1=O)c1c(N)n(Cc2ccccc2)c(=O)[nH]c1=O	2.53
O=C(COC(=O)C1CCN(c2ccc(C(F)(F)F)cn2)CC1)NCc1ccc(Cl)cc1Cl	7.52
CCC(=O)c1ccc(Oc2ccc(C(=O)c3ccc(C)cc3)cc2[N+](=O)[O-])cc1	11.1
CN(CCCNC(=O)CCC(=O)N1CCOc2ccc(Cl)cc21)Cc1ccccc1	-48.3
Cc1nc(CCNC(=O)Cc2ccccc2)cs1	8.96
COc1ccc(OC)c(C(=O)N2CCCC(Nc3ccc(F)cc3)C2)c1 (centres unmarked)	0.053
CCN1CCN(CCCNC(=O)c2cc3cc4ccc(OC)cc4nc3o2)CC1	-1.57
Cc1csc(SC(C)C(=O)NCc2ccc3c(c2)OCO3)n1 (centres unmarked)	1.31
CC(C)(C)NS(=O)(=O)c1ccc(NC(=O)Cc2ccccc2[N+](=O)[O-])cc1	4.39
CS(=O)(=O)c1ccc(C(=O)Nc2ccc(N3CCCCC3)cc2)c(Cl)c1	12.7
Cc1cccc(N2CCN(C(=O)Cc3cn(C)c4ccccc34)CC2)c1C	1.35
Br.O/C(=C\Sc1nnc(Cc2ccccc2)o1)c1ccc(Br)cc1	18.9
CN1C(=O)C(=Cc2ccc(Sc3ccccc3)o2)C(=O)N(C)C1=S	17.9
CSc1nnc(N2C(=O)C(O)=C(C(=O)c3ccco3)C2c2ccccc2F)s1 (centres unmarked)	-4.71
COc1ccc2cc3c(N)nn(C(=O)C4CCC(C(C)(C)C)CC4)c3nc2c1 (centres unmarked)	5.54
O=C1c2oc3ccccc3c(=O)c2C(c2ccc(O)cc2)N1c1nccs1 (centres unmarked)	12
COC(=O)[C@@H]1C[C@@]2(O)[C@H](O)[C@H](O)[C@H](O)C[C@H]2N1Cc1cc(OC)cc(OC)c1	7.27
C=C(C)C1Cc2c(C)nn(-c3nc(C)cc(C)n3)c2C1 (centres unmarked)	11.3
COC(=O)c1cc(C(=O)Nc2nnc(CC(C)(C)C)s2)cc([N+](=O)[O-])c1	12.3
Cc1ccc(OCC(=O)N2CCc3ccccc32)cc1	10.7
COc1cc(-c2n[nH]c(=S)n2Cc2ccccc2)cc(OC)c1OC	9.08
COc1ccc(C2c3ccc(O)cc3Oc3ncn4nc(-c5cccnc5)nc4c32)cc1OC (centres unmarked)	-9.08

SMILES	hERG current change (%, negative = inhibition) at 1uM [%]
O=C(OCC(=O)c1ccc([N+](=O)[O-])cc1)/C(=C/c1ccc(Cl)cc1)NC(=O)c1ccccc1	-32.4
COc1cccc(CNC(=O)CCC2CCCN(C(=O)CCn3cncn3)C2)c1 (centres unmarked)	8.85
O=S(=O)(Nc1ccc(-n2cccc2)cc1)c1ccc(Cl)cc1Cl	13.5
O=C(NCc1ccccn1)Nc1ccc(Cl)cc1	13.9
c1ccc(-c2nnc3n2NC(c2ccc4c(c2)OCO4)S3)cc1 (centres unmarked)	-6.12
Oc1c(Cl)cc(Cl)cc1CN1CCN(Cc2ccccc2)CC1	6.04
O=C1OC(Cc2ccccn2)C(=O)C1=C1SCCS1 (centres unmarked)	9.64
CCC(=O)CC(c1ccc([N+](=O)[O-])cc1)c1c(O)c2ccccc2oc1=O (centres unmarked)	5.63
O=C1C(=O)N(c2nccs2)C(c2ccccc2)/C1=C(\O)c1ccc2c(c1)OCCO2 (centres unmarked)	5.25
CN(C)C(CNC(=O)c1cc2ccccc2oc1=O)c1ccccc1 (centres unmarked)	3.59
CN(CC(=O)OCC(=O)Nc1ccccc1)S(=O)(=O)c1ccc(Cl)cc1	3.38
Cc1ccc(S(=O)(=O)c2c(COC(=O)c3ccccc3Cl)c(-c3ccccc3)nn2C)cc1	4.54
Cc1ccc(SC(=O)COc2ccccc2C)cc1	7.02
CCOc1cc(C)c(Cl)cc1S(=O)(=O)NCC1CCCO1 (centres unmarked)	11.5
O=C(c1cccc(C(F)(F)F)c1)C1CCCN(C(=O)c2cc(C3CC3)[nH]n2)C1 (centres unmarked)	16.9
CC(=O)Cc1nsc(NC(=O)c2ccc(F)cc2)n1	12.2
CNC(=O)c1cccn(Cc2cc(C(F)(F)F)cc(C(F)(F)F)c2)c1=O	12.3
N#Cc1ccccc1NC(=O)COc1ccc2c(c1)OCO2	13.3
O=C(COC(=O)c1nc(Cl)ccc1Cl)NCc1ccccc1	6.04
CCOc1cc(/C=N/n2c(COc3ccccc3)n[nH]c2=S)ccc1O	12.9
CN(C)/C=C1/N=C(c2ccccc2)OC1=O	0.573
COc1ccc(CCNC(=O)Cn2nnc3ccccc3c2=O)cc1	14.1
